According to the supplement of paper PMC3724861:
Some of the results follow.

These sequences were tested on T1, Caupolican (Caup) homeodomain DNA-binding domain (assay: PBM E-score (8-mer, recovered from the published 9-mer minima) (E-score (dimensionless, -0.5 to 0.5)); Drosophila protein; higher = stronger relative binding preference, active = 0.31 or more).
T1 sequence: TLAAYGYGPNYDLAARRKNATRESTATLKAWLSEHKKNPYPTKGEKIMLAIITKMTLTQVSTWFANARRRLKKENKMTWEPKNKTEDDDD
Method in brief: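 Caup's homeodomain DNA-binding domain (residues 214-303) was made by in vitro transcription and translation and applied at 100 nM to custom-designed protein binding microarrays. Each value is an enrichment score that gives relative binding preference for a short DNA word, with higher meaning stronger. The 8-mer values were recovered from published 9-mer scores, each of which was the minimum of its two constituent 8-mer scores. A cutoff of 0.31 marks candidate sites.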

PBM E-score, ≥ 0.143:
ATACCCTA

PBM E-score, ≥ -0.0697:
TCGCTCCA

PBM E-score, ≥ 0.127:
ATATAGGA

PBM E-score, ≥ -0.0596:
AGGTGCCA

PBM E-score, active:
ACATGACA ≥ 0.43
ACCGTGTC 0.312
CCGTGTAA 0.35
ACGTGTCA ≥ 0.374

PBM E-score, inactive:
CCAGGTGA -0.00212
ACCGCTTC -0.14
AAATCAAG 0.0444
ATGGTATG 0.132
CCAAATAA 0.126
GTATCTTA 0.14
CCAATCTC 0.0676
ACCTAACC 0.0148
AAGAACTT 0.0363
TCGGCAGA -0.0919
ACCCAACC -0.053
GAGTAGGC -0.142
CACCTGGC -0.082
ATACCACA 0.0715
ATACGGTA 0.0499
GCGGTAGC -0.103
ATAATGAT 0.14
CTTTCTCA -0.0121
GAAAAAAC 0.0292
AGATGGAG -0.0743
CTTGATGC -0.0664
GCGTCTCC -0.136
CGTGTTCC 0.257
CGAGACCC -0.136
CTTCGTTC -0.0801
GAGACGAA -0.0944
AGCACGCG -0.0415
ACTCATTG 0.0883
AGCTTGGC -0.157
GGGAGTAA 0.0271
GTGACACA 0.245
CTATTCAA 0.142
AGGGGTAC -0.0164
ACCGGGAA -0.0392
CAGACGCG -0.161
AGCTCCGA -0.0667
CCGCTAAG -0.145
AGTAGATG 0.106
CAGGCCAC -0.175
ACTTAGGA -0.0286
GTAGTTAA 0.201
GCCTTTGA 0.0423
GGAGCCCA -0.218
GACTGTAA 0.127
GGGGCCAA -0.269
AGAGCTGG -0.0349
CAGATGAG 0.0267
ATCGGTTC -0.021
AGCCTTCC -0.243
TACGGCTA -0.0377
AGCCATGG -0.0528
AACGGCTT -0.147
GCAGGTGA -0.0486
CTCATGTC 0.306
CGTGGGGA -0.131
AGGGCCAT -0.116
GTTCGTCA 0.0192
AGCCCTGC -0.232
TAAACCGA 0.0913
CTAGGGCC -0.235
CCGATCAC 0.049
CTGTATCC 0.2
ATAAACGC -0.00028
CCGTTGGC -0.151
CAAGCTCG -0.114
GCTAAGAC -0.0692
CGTTGCAA 0.00353
AATCTCTA 0.0932
CAATATGA 0.132
CACCGCCG -0.161
CTGCCTGC -0.201
CACCCCTA -0.0888
AGTAGACC 0.0256
CGCTTGGC -0.165
AGTTTAAC 0.119
GATGCGGC -0.211
GCTATAGA -0.0486
CGGACCTC -0.205
CCGGAGTC -0.182
CGGAACGC -0.111
AGCCTGGC -0.213
GCAGGGGA -0.239
GTAGCCCA 0.00973
ACATCCCC 0.0968
ATGCCCCG -0.14
AGAAACGA 0.0571
ACACGTTG 0.229
CCTCTGAG -0.224
CCCCCAAA -0.228
CCATGGTA 0.133
CATCCTGA 0.007
ACGGTGAG -0.136
GAGATCGC -0.0885
AGCCCCTA -0.186
GAGGCCCA -0.232
GACCTGAC -0.0401
AGAGGGCG -0.153
GTAGGAGA -0.0257
GGCATAAA -0.021
CCCAGTAG -0.0965
AAAGACAG 0.032
CGTTTCCC -0.165
CCTACTCA -0.0849
GGATAACC -0.0854
CTCGAGAG -0.112
AAGTTATC 0.0886
TGAACTAA 0.026
AATGTACC 0.192
CCCATCTC -0.167
CTCCGTAA -0.142
CGCACAGA -0.0672
CGCGACAG -0.0284
AAGCGGAG -0.0542
CGTTTCCA 0.0216
CTCGTTTA 0.0535
CGATTTCA -0.0117
CAGGACTA 0.043
CAACTATG 0.168
CCCTTGAC -0.0839
CTCTGCAG -0.0908
CTTTTTAA -0.0201
CGGCGTCA -0.146
AAGATCTT 0.0143
ATCATGAC 0.233
ATGAGAAC 0.0869
GATGTCAC 0.294
ACCGTAAT 0.00498
AATAGACC -0.0627
ACAAGCGG 0.219
CGGAACTC -0.05
CCAGCCGA -0.199
ACTATCAA 0.127
AAATCCTG 0.0969
CACCGTAC 0.107
AAGCGTCT -0.129
CTACGTAG -0.0763
GGATTTTA 0.0194
TCTAATCA 0.155
CATGCTTA 0.127
ATGTAAGC 0.231
TATTATCA 0.157
CAATGACG 0.0695
AGGCCTTA -0.112
ACGAACAC 0.24
AGTGGCTA -0.11
GAGATTCA 0.0308
TGGAAACA 0.192
GTAATCGA 0.171
CCTAAAGA -0.122
ATGTGATC 0.211
GCCTATCA -0.108
CCATCACC -0.0284
GGTCGCAA -0.111
ATCACTTG 0.172
GCGGGGGA -0.279
GGGTCGAC -0.122
CTCCGGCA -0.112
AATGTCGC 0.191
ACACTTCC -0.0229
GACCCAAC -0.0923
CCAAGGCA -0.181
CTCCTTTC -0.118
CAGCGTAC -0.0501
CAGGTCGC -0.0801
CGGGGTAC -0.117
ACTGTAGA 0.136
ATGGGTTC -0.0378
AGGGTATA 0.102
ATTTCTCA 0.0413
TCAAATAA 0.152
CATTTATC 0.103
AACTCCCT -0.108
ACAAAACC 0.0917
GACAGATC 0.0695
ACTCAATG 0.124
GTTTTATA 0.13
ACGATTCT 0.0871
GAGGGTAA -0.0695
ACCTCGGG -0.143
ACTCCGAG -0.0336
CGCCGTAC -0.0654
GACGACCC -0.0427
GCATCTAC 0.0527
CTGCTCTC 0.0066
AACAGAAG 0.0837
GCGGGGCA -0.224
CAGCTTTC -0.131
CTACTCAA 0.116
AAGGCACC -0.126
CCACAAGC -0.0871
CAACGCCG -0.0702
ACTCAGTA 0.0624
GACTCAGC -0.117
TCTGCGAA -0.0101
CGAGCAAG -0.0126
ACAGTTCT 0.0357
GCGATTGA -0.0316
CTACGCGC -0.137
TAAGGCCA -0.0926
GCGGTGAC -0.0727
GGTCGCTA -0.0843
CCCCGCGG -0.21
AGGACGCA -0.0925
ACCACTGC -0.0739
GCACAACA 0.211
AAGCTATG -0.0119
ACTCGGAT 0.0601
AAGAGCAG -0.0917
GATCGTCA 0.0677
GGTTTATA 0.113
GACTTCAA 0.0353
AGCCCGAA -0.154

PBM E-score, ≥ 0.0355:
AAGCTTTA

PBM E-score, ≥ 0.074:
CGAGACTA

PBM E-score, ≥ 0.135:
CGTATAAA
